# Experimental data from PubChem BioAssay AID504332 (National Center for Advancing Translational Sciences (NCATS), 2011).
# The campaign covered roughly 350,000 compounds. About 31,000 (8.9%) were called active. This list was built around the results that the source calls inconclusive (neither active nor inactive); the mix of calls is not that of the screen. Calls follow the shape of the dose curve; as a rule, active = well fitted inhibition curve with a large enough effect; inconclusive = small, poorly fitted or top-dose-only effect; inactive = no such curve, though single readings can be large or run the other way. Where the call is inconclusive, the potency comes from a doubtful curve fit.
# Molecular target: Histone-lysine N-methyltransferase EHMT2 (Homo sapiens) (UniProt Q96KQ7)
# Assay: qHTS Assay for Inhibitors of Histone Lysine Methyltransferase G9a; also: nearly all actives have a fitted effect of over 75% in size
# Details: G9a H3K9 monomethylation, AlphaScreen, 2 h; activity, negative = inhibition: at 59 µM (top of the series) unless noted
# Outline: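 Compounds were preincubated with 20 nM G9a for 15 min, after which biotinylated H3K9 peptide (500 nM) and SAM (20 uM) started a 2 h room-temperature reaction. Monomethylated product was quantified by antibody-based AlphaScreen chemiluminescence.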
# % is scaled to controls: 0 for no effect and ±100 for the full control effect; potency is read from the fitted curve at half-maximal effect; tags tell the direction and shape of the fitted curve.
# Chain of UniProt Q96KQ7 (Q96KQ7 whole entry, looked up): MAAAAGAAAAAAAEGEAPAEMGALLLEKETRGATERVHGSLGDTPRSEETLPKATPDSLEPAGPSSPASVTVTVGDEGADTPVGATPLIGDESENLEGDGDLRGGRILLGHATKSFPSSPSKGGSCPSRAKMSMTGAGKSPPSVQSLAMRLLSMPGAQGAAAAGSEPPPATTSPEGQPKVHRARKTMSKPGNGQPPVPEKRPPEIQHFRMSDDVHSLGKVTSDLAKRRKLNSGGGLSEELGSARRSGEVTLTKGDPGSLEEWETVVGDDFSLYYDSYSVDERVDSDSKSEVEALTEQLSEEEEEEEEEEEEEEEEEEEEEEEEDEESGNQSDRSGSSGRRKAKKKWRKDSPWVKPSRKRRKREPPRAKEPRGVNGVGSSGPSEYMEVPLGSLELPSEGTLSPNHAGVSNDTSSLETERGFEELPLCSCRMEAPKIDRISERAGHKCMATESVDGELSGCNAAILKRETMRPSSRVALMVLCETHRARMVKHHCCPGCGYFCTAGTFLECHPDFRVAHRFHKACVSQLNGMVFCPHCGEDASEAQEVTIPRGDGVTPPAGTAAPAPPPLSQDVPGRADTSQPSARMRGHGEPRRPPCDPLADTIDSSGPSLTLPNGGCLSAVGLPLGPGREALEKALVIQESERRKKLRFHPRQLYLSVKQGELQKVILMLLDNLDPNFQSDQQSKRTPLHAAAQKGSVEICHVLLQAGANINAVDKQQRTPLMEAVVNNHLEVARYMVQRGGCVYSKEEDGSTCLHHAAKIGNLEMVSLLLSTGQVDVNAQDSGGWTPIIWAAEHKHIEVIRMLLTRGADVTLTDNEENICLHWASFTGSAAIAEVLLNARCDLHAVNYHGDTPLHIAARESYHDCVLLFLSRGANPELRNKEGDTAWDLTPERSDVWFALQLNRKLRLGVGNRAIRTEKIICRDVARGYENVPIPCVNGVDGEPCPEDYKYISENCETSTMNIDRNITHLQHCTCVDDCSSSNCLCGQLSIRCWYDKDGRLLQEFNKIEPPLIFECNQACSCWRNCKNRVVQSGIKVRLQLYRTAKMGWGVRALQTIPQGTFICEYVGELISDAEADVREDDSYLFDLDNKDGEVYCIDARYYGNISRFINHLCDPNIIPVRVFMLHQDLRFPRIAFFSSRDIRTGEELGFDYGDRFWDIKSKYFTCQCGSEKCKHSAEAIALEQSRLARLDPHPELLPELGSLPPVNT
SMILES,Potency,"activity, negative = inhibition"
COc1cccc(OC)c1NC(=O)CN1CCN(C)CC1,active: 44.7 µM,
Cc1cc(C)n(-c2ccc(NC(=O)C3CCCCN3C(=O)c3cc(C)oc3C)cc2)n1 (stereo not drawn),"inconclusive: 100 µM [inhibitor, single point]",
Cc1cc2cc(CNC(=S)NCc3ccccc3)ccc2n1C,"inconclusive: 44.7 µM [inhibitor, partial curve]",
Cc1ccc(/C=N\NC(=O)CNC(=O)C23CC4CC(CC(C4)C2)C3)o1,,inactive: -5.49% [at 12.7 µM]
COc1cc(C2C(=O)N(C3CCCCCC3)CC(=O)N2CCc2ccccc2)ccc1OC(C)C (stereo not drawn),inactive,
Cc1ccc2c(c1)/C(=N/O)CCS2,"inconclusive: 3.98 µM [inhibitor, single point]",
Cc1cc(C(=O)OCC(=O)N(C)C2CCS(=O)(=O)C2)c(C)n1-c1ccccc1 (stereo not drawn),"inconclusive: 79.4 µM [inhibitor, partial curve, poor fit]",
CCCc1cc(=O)[nH]c2nnc(SCC)n12,"inconclusive: 31.6 µM [inhibitor, single point]",
CC(=O)Nc1c([N+](=O)[O-])cc2[nH]c(=O)[nH]c2c1[N+](=O)[O-],active: 31.6 µM,
Cc1ccc(N2CC(C)Cn3c2nc2c3c(=O)n(Cc3cccc(Cl)c3)c(=O)n2C)cc1 (stereo not drawn),inactive,
C/C(CCN1CCc2nc(-c3ccccc3)c(-c3ccccc3)cc2C1)=N\OC[C@@H](C)[C@H](OCc1ccccc1)C(C)C,active: 44.7 µM,
CC(=O)N=C1SC2CS(=O)(=O)CC2N1c1ccccc1Cl (stereo not drawn),"inconclusive: 8.91 µM [inhibitor, single point]",
O=C1S/C(=C/c2ccc(N3CCOCC3)o2)C(=O)N1Cc1ccc(F)cc1,active: 7.94 µM,
COc1cccc(CNc2cc(C)nc3nc(-c4ccc(C)cc4)nn23)c1,inactive,
COc1ccc(-c2nnc3ccc(SCC(=O)N4CCCCC4)nn23)cc1OC,"inconclusive: 79.4 µM [inhibitor, partial curve, poor fit]",
O=C(Nc1cccc([N+](=O)[O-])c1)c1ccc2c(c1)C(=O)N(c1ccccn1)C2=O,"inconclusive: 89.1 µM [inhibitor, single point]",
CCOC(=O)C1=C(C)N2C(=C(C#N)[C@@H]1c1ccc(C(=O)OC)cc1)SC[C@@]2(O)C(C)(C)C,"inconclusive: 3.98 µM [inhibitor, partial curve, poor fit]",
CC(=O)Nc1ccc(S(=O)(=O)NCCC(=O)OCc2ccccc2F)cc1,"inconclusive: 6.31 µM [inhibitor, single point]",
O=C(NCC(c1ccco1)S(=O)(=O)c1cccs1)c1ccccc1F (stereo not drawn),inactive,
CCN(CC)c1ccc(NC(=O)c2cc3ccccc3o2)c(C)c1,"inconclusive: 3.55 µM [inhibitor, partial curve, poor fit]",
CCOc1ccc(-n2c(=O)[nH]c3sc4c(c3c2=O)CCCC4)cc1,inactive,
Cc1ccc(C(=O)C2=C(O)C(=O)N(Cc3cccnc3)C2c2ccc(Cl)c(Cl)c2)o1 (stereo not drawn),"inconclusive: 50.1 µM [inhibitor, partial curve, poor fit]",
NS(=O)(=O)c1ccc(NC(=S)N2CCN(c3cccc(Cl)c3)CC2)cc1,active: 8.91 µM,

SMILES,Potency,"activity, negative = inhibition"
COC(=O)c1ccc(NC(=O)c2cccc(N3C(=O)CCC3=O)c2)cc1,"inconclusive: 79.4 µM [inhibitor, single point]",
CCn1c2ccccc2c2cc(NC(=O)c3ccc(Br)o3)ccc21,active: 11.2 µM,
Cc1ccc(NNC(=O)C(O)(c2cccc(C(F)(F)F)c2)c2cccc(C(F)(F)F)c2)cc1,active: 31.6 µM,
Cc1nc(CS(=O)(=O)c2ccc(Cl)cc2)sc1C(=O)O,"inconclusive: 89.1 µM [inhibitor, partial curve, poor fit]",
CCOc1ccc(NS(=O)(=O)N(C)C)cc1,"inconclusive: 28.2 µM [inhibitor, partial curve, poor fit]",
S=C(NN=C1C2CC3CC(C2)CC1C3)Nc1ccccc1,"inconclusive: 7.94 µM [inhibitor, full curve, poor fit]",
O=c1c2ccccc2nnn1CSc1nnc(C2COc3ccccc3O2)n1-c1ccccc1 (stereo not drawn),"inconclusive: 89.1 µM [inhibitor, partial curve, poor fit]",
Oc1ccc(-c2csc(Nc3ccccn3)n2)cc1O,active: 11.2 µM,
CN1CCN(CCCNC(=O)c2ccc(/C=C3\Sc4ccccc4N(Cc4ccc(F)cc4)C3=O)cc2)CC1,"inconclusive: 31.6 µM [inhibitor, single point]",
Cc1[nH]c2ccccc2c1C(=O)NS(=O)(=O)Nc1ccc(F)cc1,"inconclusive: 50.1 µM [inhibitor, partial curve]",
Cc1ccc(N2CC(C(=O)Nc3ccc(S(=O)(=O)Nc4nccs4)cc3)CC2=O)cc1C (stereo not drawn),"inconclusive: 89.1 µM [inhibitor, single point]",
N#C/C(=C/c1ccc2c(c1)OCO2)C(=O)NCCc1c[nH]c2ccccc12,"inconclusive: 17.8 µM [inhibitor, single point]",
COc1ccc(NC(=O)CN(C)C(=O)c2cc(S(=O)(=O)N(C)C)ccc2N2CCCC2)cc1,"inconclusive: 7.08 µM [inhibitor, partial curve]",
COc1ccc(Cn2nnnc2C(c2cc3ccc(OC)cc3[nH]c2=O)N2CCC(C)CC2)cc1 (stereo not drawn),"inconclusive: 6.31 µM [inhibitor, single point]",
Cc1cc(OCCCn2ccnc2)cc(C)c1Cl,"inconclusive: 39.8 µM [inhibitor, single point]",
Cc1ccc(OCCn2c(=S)[nH]c3c(N)ncnc32)cc1,active: 3.55 µM,
Nc1ccccc1Nc1cc(-c2ccccc2)[nH]n1,active: 39.8 µM,
CC(C)CN1CCN(C(=O)CCc2nnc(Cc3c[nH]c4ccccc34)o2)[C@@H](C)C1=O,"inconclusive: 39.8 µM [inhibitor, full curve]",
Cc1ccccc1NCCC(=O)Nc1ccc(Cl)cc1,inactive,
COc1ccc(C2Nc3ccccc3C(=O)N2O)cc1OC (stereo not drawn),active: 10 µM,
Oc1ccc(/C=N/n2cc(-c3ccccc3)[nH]c2=S)cc1,active: 2.51 µM,
CCC(C)n1c(S(=O)(=O)O)nc2ccccc21 (stereo not drawn),active: 79.4 µM,
Cc1noc(C)c1CSCC(=O)OCC(=O)Nc1sccc1C#N,"inconclusive: 39.8 µM [inhibitor, single point]",

SMILES,Potency,"activity, negative = inhibition"
CC(C)(C)NC(=O)NC(=O)CSc1ccc(S(=O)(=O)N2CCCCC2)cn1,,inactive: 12.3% [at 12.7 µM]
CCOC(=O)C1=C(C)NC(C)=C(C(=O)OCC)C1C(=O)OCC(=O)N1CCCCC1C (stereo not drawn),inactive,
CCC(C)NC(=O)C1=CCN(S(=O)(=O)c2ccc(C)cc2)CC1 (stereo not drawn),active: 50.1 µM,
Cc1onc(-c2ccccc2Cl)c1C(=O)Nc1ccccc1O,inactive,
O=C(CSc1cccc2cccnc12)N1CCCC1,"inconclusive: 14.1 µM [inhibitor, partial curve, poor fit]",
O=C(COc1ccc(Cl)cc1Cl)NCCCNC(=O)c1cnccn1,"inconclusive: 3.55 µM [inhibitor, partial curve, poor fit]",
CC1C(=O)N2CCCc3cc(S(=O)(=O)NCc4ccc(F)cc4)cc1c32 (stereo not drawn),"inconclusive: 89.1 µM [inhibitor, partial curve, poor fit]",
CC(C)[C@H](CO)N(Cc1cccc(F)c1)c1nc(Nc2cccc(Cl)c2)c2ncn(C(C)C)c2n1,"inconclusive: 3.16 µM [inhibitor, single point]",
CCNc1ncc2nc(-c3ccc(OC)cc3)c(=O)n(Cc3cccc(OC)c3)c2n1,,inactive: 7.41% [at 12.7 µM]
Cc1ccc([N+](=O)[O-])c2c1C(N1CCCC1)C(C)(C)O2 (stereo not drawn),active: 11.2 µM,
O=C(O)c1cccc(NC(=S)N/N=C/c2cccnc2)c1,"inconclusive: 50.1 µM [inhibitor, partial curve, poor fit]",
Cc1ccccc1NC(=S)Nc1ccc2[nH]c(=O)[nH]c2c1,active: 50.1 µM,
Cc1cccc(C)c1NC(=O)CN1CCN(C(=O)C2CCC2)CC1,"inconclusive: 89.1 µM [inhibitor, single point]",
O=C(CN(C(=O)c1csnn1)c1cccc2c1CCCC2)NCc1ccccc1,inactive,
CN(Cc1ccccc1)C(=O)c1nc(-c2ccc(Cl)cc2)n2c1CCCCC2,"inconclusive: 11.2 µM [inhibitor, partial curve, poor fit]",
CC1N=C2c3ccccc3N=C(SCC(=O)NCCc3ccccc3)N2C1=O (stereo not drawn),"inconclusive: 39.8 µM [inhibitor, partial curve, poor fit]",
COc1ccc(Nc2c3c(nc4ccc(NC(=O)c5ccc(F)cc5)cc24)CCCC3)cc1OC,"inconclusive: 31.6 µM [inhibitor, single point]",
CC1CN(S(=O)(=O)c2ccc(Cl)c(C(F)(F)F)c2)CC(C)O1 (stereo not drawn),"inconclusive: 89.1 µM [inhibitor, partial curve, poor fit]",
C/C(=C/c1ccccc1)C(=O)N1CCN(c2ccc(F)cc2)CC1,inactive,
CC1CC(C)(C)NC(=S)N1CC(=O)N1CCN(Cc2ccccc2)CC1 (stereo not drawn),"inconclusive: 79.4 µM [inhibitor, partial curve, poor fit]",
CC(C)Cn1c(N)c(C(=O)COC(=O)[C@@H]2CCCN2C(=O)c2cccs2)c(=O)n(C)c1=O,inactive,
COc1ccc(-n2c(-c3ccc(Br)cc3)c[n+]3c2SC(C)C3)cc1 (stereo not drawn),"inconclusive: 89.1 µM [inhibitor, partial curve, poor fit]",
